Data taken from the supplement of paper PMC11417369.
The other results are listed elsewhere or left out.

system: PfSIP2 AP2 domain 1 (GST-tagged); assay: gcPBM binding intensity (ln(normalized median fluorescence intensity)); higher = stronger DNA binding
Procedure, shortened: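 GST-tagged P. falciparum DNA-binding domains produced in E. coli were incubated for 1 h on an Agilent 4 × 180k array of primer-extended double-stranded 36-bp intergenic genomic probes with negative controls. Binding intensity is the highest Masliner-normalised natural-log median intensity across replicate spots of either probe orientation, with bound protein detected by Alexa488 anti-GST antibody at 488 nm.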

Row | Sequence | gcPBM binding intensity (ln)
1 | AGGTGATTAATATATACACACATACATATATATATA [CACACA_site8913] | 8.9
2 | TAATTTAATAATTAGACACACATGTCTAAAATAAAA [CACACA_site2527] | 6.7
3 | AAAAGAAATTTGGGCACATGCGAATTTATAATTTAT [TGCATGCA_site960] | 6.68
4 | TAAAGTATTACAACCACACACACACCGATATATTAT [CACACA_site9382] | 6.97
5 | TATATATATATATATACATGCATATTTTTTATTTTT [TGCATGCA_site464] | 9.67
6 | TTTTTTATATATATTTGTACATATTGCATGTTCCCT [XGTACX_site7143] | 6.91
7 | TATATTTATCTGATAACACACATAAATTAGACATTT [CACACA_site6887] | 7.01
8 | TGTCTTATATATATTACACACTATATGAAAAAATAT [CACACA_site1487] | 7.07
9 | AATATGGTTATATATATATATATATATATATATATT [GTGCAC_negctrl_site566] | 7.95
10 | CAACATTTATATTTTACACACATCATTTAAGCGCTT [CACACA_site992] | 6.94
11 | ATTGTTTTATATAGAACACACATAAAAATCTATATG [CACACA_site6681] | 6.85
12 | TTATTATATAAAATAAATAACAAAAAAAATAAAATA [GTGCAC_negctrl_site548] | 6.92
13 | CCTATCCATACATATACACACATATCTATTTATATA [CACACA_site1669] | 7.15
14 | TTTGAAATAAATAATGCACACTCTACATATATACGT [CACACA_site2244] | 7.93
15 | AAATAAAATACAAGTTGTACTATAAGCTTTTTATAT [XGTACX_site8021] | 6.9
16 | AAAAAAAAAAGACACACACACATATTTATTTATATA [CACACA_site6484] | 6.96
17 | AATATATAAGTGTTGTGTACTAAAGTATTTTCCTAT [XGTACX_site1622] | 7.02
18 | CATATACAGAAACACACACACACATAAATAAATATA [CACACA_site1343] | 7.2
19 | TTTAATTAAATATGTATATATATTCATGTATGTATA [GTGCAC_negctrl_site14] | 7.16
20 | AGTAGATATAAAAGGAGTACACATATATATATAAAT [XGTACX_site4375] | 7.06
21 | TGTTTTTGTGATCATATGAAAAAATTACCTACAAGG [CACACA_negctrl_site279] | 7.2
22 | ATAGTATCTGGTAGCTGTACGAGTCGTATAGTGCAG [XGTACX_site2542] | 8.25

Row | Sequence | gcPBM binding intensity (ln)
23 | TTTCCGTATAATTTTGCACACGAATATAAATTTGAT [CACACA_site137] | 7.38
24 | ATAGTTTTACACATTTGTACATAATTTACAACAAAA [XGTACX_site25] | 7.31
25 | ATATATATATATTCCACACACACACTAATAAAAAAA [CACACA_site9214] | 8.93
26 | TTTAATCAAATTAAAAGTACAGAATTGTTCATGTAG [XGTACX_site1229] | 7.22
27 | AAAAAATATTATATATGTACATAATATTTTTTTTTT [XGTACX_site5909] | 6.86
28 | TTTTACAATGAAATATGTACTTAAATGTCCAAATTC [XGTACX_site781] | 6.79
29 | TATATAAGAATATATACACACATATATGTATATATA [CACACA_site2178] | 7.23
30 | AAAAAGAAAAATTGCACACACTTATAAAAATATACG [CACACA_site6074] | 7.32
31 | GTTAACAAATAATGCACACAAATGGATAAAATTATA [CACACA_site3725] | 7.68
32 | TTAACCATTAATTCTCTACACACTTTTATTTTATTT [CACACA_site8522] | 6.94
33 | TATTATTAATATGTATGGTTGTAATCTGTGTCTCCT [TGCATGCA_negctrl_site190] | 7.12
34 | AATATAATTTTTTATTGTACAAAAAAATTATTTAAT [XGTACX_site3248] | 7.04
35 | AAGAACAAATATGAGGTGCAACACAATATATTATTA [GTGCAC_site9965] | 10.5
36 | AATAAGTATACACATACACACACACCCAAAAAAAAA [CACACA_site8034] | 7.13
37 | CATTTTGTAAGATATGCACACATGGATCATATTTTA [CACACA_site423] | 6.94
38 | TTTTTTTTTATCAAATGTACATATATATAATAATAA [XGTACX_site3941] | 7.39
39 | ATGGGTATTAAGTGTACACATATAGTGTATTTTGTT [CACACA_site4452] | 6.98
40 | GTGTAAATATAATTAGTTTCACAAAACAAATATTTA [CACACA_negctrl_site717] | 6.72
41 | AGGCACAAAATTAAATGTACATATATATATATATAT [XGTACX_site3323] | 9.42
42 | GATTACTAGAAATGCACACACTGATAAAATAAGGAA [CACACA_site6131] | 7.82
43 | TATATATATGAGTATACACACCTGATAAAGGTATAT [CACACA_site5462] | 7.18
44 | TTAAACTTGAAACACACACACACACCGATATAAAAA [CACACA_site4578] | 7.03

Row | Sequence | gcPBM binding intensity (ln)
45 | ATAAAAATATTGTCTAGTACATATTTATAATAAAAA [XGTACX_site7523] | 6.89
46 | AGAAATATATCTATTTGTCCGTATATTCATATTTAT [XGTACX_site8427] | 6.79
47 | AGATTGGAACATTAAAGTACTTACTTTTTTTTTTTT [XGTACX_site8017] | 6.74
48 | ATTTTTTTTTTTTTTTTTTTTGCACCATAAAATAAT [CACACA_negctrl_site1324] | 11.3
49 | TATATACTCAAACACACACACACATACACAGACATA [CACACA_site5025] | 7.35
50 | ATTTTGACATTATATAGTACATATAATTTACATTTA [XGTACX_site3024] | 7.15
51 | TATATATATATGTGTACACATTTGTCAGATTATATA [CACACA_site4813] | 9.14
52 | ATATATTTAAACAAAAGTACAAATCATAAATTCAAG [XGTACX_site3633] | 6.87
53 | TATATATTCTTTTAATGTACATATTGTATTATATCC [XGTACX_site4501] | 7.14
54 | TCTTTATCTTCTTATACACACATTTATTAAAAAAAA [CACACA_site445] | 7.58
55 | TGACATAAAAAATATACACACTATAATATTTATACT [CACACA_site6776] | 6.91
56 | ATTTTTTAAAAAGTAACACACACTCTTATATATAAT [CACACA_site9206] | 7.13
57 | ATAAAACGAAGATGTTGTACGTACAAATAAATGAAT [XGTACX_site2472] | 7.77
58 | ATAACTTTTTAAAAGACACACATAAGAAAAACAAAA [CACACA_site723] | 7.32
59 | TTAATTAATTTTTCAGTGCAAATAAAAAATATTTAA | 7.78
60 | CAAAAGTAAGCACGCACACACAACATGAAATAAACT [CACACA_site6223] | 7.09
61 | TATCTTATAAACTCTGCACACATAATATATTAAATG [CACACA_site8587] | 9.1
62 | TATACGCAGAAACACACACACATACACCCACATACA [CACACA_site1723] | 7.19
63 | AACGTTCATAATTATTGTACCCTCATTTTATTTTTT [XGTACX_site503] | 6.94
64 | AAAAATTTTAATTAGGAACACACATATATATATATA [CACACA_site9016] | 9.37
65 | TATATTAGAAAGGATACACACATATATATATATCTA [CACACA_site570] | 7.02
66 | ATATATATGTATGTATGTACACACAAAAAATGGAAT [XGTACX_site7879] | 7.8

Row | Sequence | gcPBM binding intensity (ln)
67 | TACAAAATAAATGGAACATGCAAAAAAATTGATTAA [TGCATGCA_site790] | 6.67
68 | AAAAAAAAAAAAAAAACACACATTTTAAGAAAAAAA [CACACA_site2926] | 7.74
69 | ATATGCTATTATATATGTACACACCAATTTATTTAT [XGTACX_site8364] | 7.15
70 | ATATATATATGTTTGTGTACTTATGATATCATATAA [XGTACX_site3276] | 9.09
71 | ATTATATTCTTTACTACCAATTAGTAGAAAATAAAA [CACACA_negctrl_site1096] | 6.97
72 | AATATATATATATATATTTTTGTTAGAATATGGAAT [GTGCAC_negctrl_site434] | 7.21
73 | TTAAAATAGCTAGTTTGTACATAAAATATATTACTT [XGTACX_site202] | 6.8
74 | TAAATAAATAAAAATAGTACATAATTATTATTATTA [XGTACX_site4981] | 6.98
75 | TTTTAAAAAATATAATAATATAAATATGTTTTATAC [CACACA_negctrl_site643] | 7
76 | CTTAATAAGAATAAATGTACAAGGGATAAAAAATTT [XGTACX_site3213] | 7.12
77 | ATAGAATATTAATAATTAAAAATAAAATAAAATAAA [CACACA_negctrl_site1810] | 6.87
78 | TATTTAATTATTTGTAGTACGATTAATATTTAATGA [XGTACX_site3553] | 7.05
79 | ACATTCATAAAAAAAAGTACATTTTTTATAAAAGAA [XGTACX_site6197] | 7.32
80 | TATATTTAGAATACAATCTTAAAGTTGAAATAAAAT [CACACA_negctrl_site1292] | 6.84
81 | TTGTTAAATATTTATAAAATGAATTTAAAATGTACT [CACACA_negctrl_site665] | 7.05
82 | AAAAAAAAAACATACACACACACAAATATTTATATA [CACACA_site437] | 6.94
83 | TTTATTATCTTATTCACACACATATATAAATATGTA [CACACA_site7369] | 7.15
84 | AACATAATAAAAAAACGTACATAATTTTATATACAT [XGTACX_site6602] | 6.99
85 | ATATATCCAATATATATATATATATATATATATATA [CACACA_negctrl_site160] | 9.52
86 | ATAATATAGAAACACACACACATATATATATACATT [CACACA_site555] | 6.97
87 | TAGTTTTTATATAGCACACATATTGTGATTATGTAT [CACACA_site1196] | 6.98
88 | TTTATATATAAATATATATATATATATATATATATA [TGCATGCA_negctrl_site121] | 9.22
